Assay results reported in the supplement of paper PMC4466236.
Whole data set: some 33,000 sequences, median “E-score (dimensionless, -0.5 to 0.5)” near -0.058, cut for the highest 2% near 0.35. The list shows a part of the results.

system: MvaT; assay: PBM 8-mer E-score (mean of HK and ME arrays) (E-score (dimensionless, -0.5 to 0.5)); higher = stronger relative binding preference; most listed sequences are background and not binding sites
Procedure: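 Protein binding microarray: GST-tagged full-length MvaT (P. aeruginosa PAO1) bound to two universal double-stranded 60-mer arrays (ME and HK), each with a constant 25-mer primer and a variable 35-mer region covering all 8-mers. The 8-mer E-score (rank-based, range -0.5 to 0.5, >0.45 = specific binding) is the mean of the two arrays.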

| Sequence | PBM 8-mer E-score |
| --- | --- |
| GCTCGCAA | -0.107 |
| ACTGGGTG | 0.0181 |
| ACTCTTTC | 0.035 |
| ATCTAGAA | 0.201 |
| CCTTCTGA | -0.254 |
| CCTCAGGA | -0.254 |
| ACTCGATG | -0.13 |
| CAGGCCTG | -0.306 |
| CGCAGGGA | -0.231 |
| AAACAGAG | 0.0196 |
| ATACCTTG | 0.00453 |
| ATAGGAAC | 0.107 |
| CCGGCCCG | -0.341 |
| GGTATACA | 0.201 |
| AGGCATAT | 0.132 |
| GAGCCCTC | -0.328 |
| GTGCTATA | 0.143 |
| CTTCAAGC | -0.193 |
| GGGTTCCA | -0.268 |
| ACTGCAGG | -0.115 |
| CGACCGTA | -0.141 |
| ACGATTGA | 0.0233 |
| CCACCCGA | -0.329 |
| CAGAGTTA | 0.167 |
| ATAATTTA | 0.416 |

| Sequence | PBM 8-mer E-score |
| --- | --- |
| ACGTCCAG | -0.18 |
| AGAAGACT | -0.054 |
| AGTGCGAA | 0.0576 |
| CTAGCCAA | -0.0421 |
| AATACTCT | 0.144 |
| ATCCCTCA | 0.0787 |
| CATTTGCG | -0.0713 |
| GCTCATTA | 0.00242 |
| ATTACGGC | 0.0781 |
| GTTGGAAA | 0.0548 |
| TACGTTAA | 0.309 |
| AGAATCTC | -0.0899 |
| CGTACCCA | -0.134 |
| TCATCTCA | -0.197 |
| CCGATGTC | -0.215 |
| CAGCTAAC | -0.0651 |
| ACGCCAGG | -0.306 |
| AACTTACT | 0.335 |
| GGAATGCC | -0.213 |
| ACACTGGG | -0.0854 |
| ATATCTTA | 0.339 |
| AAAGGGAG | -0.148 |
| CTATTGTA | 0.34 |
| ACCTAGGA | -0.126 |
| GCCGGCAA | -0.142 |

| Sequence | PBM 8-mer E-score |
| --- | --- |
| GAGTCACC | -0.0527 |
| CGCTTGTA | -0.0789 |
| CATTGAAA | 0.0806 |
| CCCATGGA | -0.251 |
| ACCTGCAA | -0.136 |
| CAATTCTA | 0.109 |
| CGCCAAGA | -0.173 |
| ATACATGA | 0.111 |
| GCCGCTAA | 0.0747 |
| AGCTGTAC | -0.129 |
| ATTCATGG | 0.0165 |
| AAAACCAT | 0.0923 |
| AGATGTGC | -0.131 |
| TTATTGAA | 0.279 |
| CGGTGGCA | -0.169 |
| CGACCTTA | 0.0242 |
| AAGTTCTA | 0.305 |
| AATAGGTA | 0.187 |
| CCGCCTCC | -0.28 |
| GCACCACA | -0.083 |
| TAACGAGA | 0.112 |
| AGCACCAG | -0.134 |
| ACTAAGGG | 0.0246 |
| AGAGTACC | -0.127 |
| AAGCCGCC | -0.273 |

| Sequence | PBM 8-mer E-score |
| --- | --- |
| AGCAGTTA | 0.12 |
| AATACCTC | 0.00434 |
| CTTCTCTA | 0.0214 |
| ACGCAAGC | -0.143 |
| TCTTCTAA | 0.163 |
| CATAGTCC | -0.0221 |
| AGAACCAT | 0.018 |
| GATCTGCA | 0.0635 |
| TAATTTAA | 0.457 |
| AACATATT | 0.392 |
| GGTCATTA | 0.0945 |
| ACGCCGCT | -0.168 |
| CACCGTGA | -0.268 |
| ACCCGCAG | -0.239 |
| AAACCTAC | -0.0782 |
| ATGATCAC | -0.0926 |
| AGAAGTGA | 0.00815 |
| ATCTTAGC | 0.0838 |
| ACAAAAAT | 0.199 |
| AACACCAT | -0.000821 |
| GATAGCGC | -0.129 |
| AGATGGCC | -0.241 |
| ACTACTCG | -0.0682 |
| CCGAAGGC | -0.263 |
| ATAACGCG | 0.12 |

| Sequence | PBM 8-mer E-score |
| --- | --- |
| AACGCAAA | 0.174 |
| GCATTAAA | 0.256 |
| CGGCGTAC | -0.23 |
| CATGGAAC | -0.0543 |
| CTTCTAGC | -0.0316 |
| GGATGAAA | -0.0113 |
| CCACTGCC | -0.168 |
| CTCAAGAA | 0.000127 |
| GTGTGAAC | 0.0097 |
| AACCCTGT | -0.0337 |
| ACTTGCAA | 0.123 |
| AAGGTAAC | 0.046 |
| TGGGCACA | -0.0266 |
| ATGGGCAA | -0.101 |
| ATTGTTTG | 0.213 |
| TCAGTTCA | -0.00177 |
| TAGATCGA | -0.0137 |
| GGGAGAAC | -0.0868 |
| GATTGCTA | 0.0477 |
| AGCCCTTG | -0.282 |
| GATCGGCA | -0.203 |
| AAAAAAGC | 0.138 |
| CACTATCC | 0.0404 |
| CCGATGGC | -0.331 |
| GCTGAATA | 0.0801 |

| Sequence | PBM 8-mer E-score |
| --- | --- |
| AATGGTCA | 0.0647 |
| TCGACAGA | 0.0616 |
| CGCGACCC | -0.194 |
| TGCTAAAA | 0.0594 |
| CAATTCTG | 0.0476 |
| CGGATGTC | -0.17 |
| ACGGAAGT | 0.166 |
| AGAGGGCT | -0.285 |
| AACGTTCT | 0.108 |
| ATGCCATA | -0.00484 |
| CCGTCACC | -0.133 |
| ACATCAGG | 0.00258 |
| ATTTAGGG | 0.034 |
| AGAATAGA | 0.051 |
| ACCAGCAT | -0.00479 |
| AGGATACT | -0.0212 |
| ACGCATTA | 0.23 |
| CTCCGGGC | -0.248 |
| CCCCGAGC | -0.2 |
| TCAAGCCA | -0.114 |
| CTATCAAA | 0.0554 |
| GCGTGCCC | -0.331 |
| GAAAGGTA | 0.0588 |
| AGATGCTG | -0.101 |
| CCTACGAG | -0.148 |

| Sequence | PBM 8-mer E-score |
| --- | --- |
| CCTAGAGA | -0.155 |
| GATGCTCC | -0.117 |
| GCAGCTGC | -0.102 |
| TCGGCGCA | -0.121 |
| AAAAACCC | 0.0378 |
| CTAGTGTA | 0.173 |
| CTGTCCAA | -0.151 |
| GGTCTGAC | -0.188 |
| CTTACTTC | 0.208 |
| CGAAAGTA | 0.175 |
| CCATTTCG | 0.00358 |
| GACTCGGA | -0.0701 |
| GGGCGCCA | -0.0642 |
| CCACCCTA | 0.0237 |
| ATCCTGGG | -0.197 |
| CCATTTAG | 0.0769 |
| CCGATTAG | 0.00629 |
| AACATAAC | 0.245 |
| CTCGGTTA | -0.0194 |
| ACGGAAGG | -0.218 |
| CACCTGGA | -0.208 |
| TCTTGTAA | 0.2 |
